# From the supplement of paper PMC10670038
# Counter-ions that a name gives are not always drawn. ± gives the standard deviation of the averaged measurements. Over roughly 2,000 compounds, “relative cell viability vs DMSO, compound alone” has its median near 1.1; the lowest 2% begin near 0.29. The list shows a part of the results.
# Test system: TE10
# Test: relative cell viability vs DMSO, compound alone (fraction); TE10 is an esophageal squamous carcinoma line; higher = less cytotoxic
# Conditions: 2 µM; 48 h
# Protocol: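 TE10 ESCC cells (1,000/well, 384-well plates) were treated with Selleck bioactive library compounds at 2 uM alone for 48 h. Viability was read by CellTiter-Glo and expressed relative to DMSO wells. Two technical replicates (A, B).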
row,Compound,relative cell viability
1,Clc1ccc(C(Cn2ccnc2)OCc2ccc(Sc3ccccc3)cc2)c(Cl)c1 (stereo not drawn) [Fenticonazole Nitrate],1.11 ± 0.018
2,CC[C@H](C)C(=O)O[C@H]1C[C@@H](C)C=C2C=C[C@H](C)[C@H](CC[C@@H]3C[C@@H](O)CC(=O)O3)[C@H]21 [Lovastatin],1.09 ± 0.031
3,CCCCNc1cc(C(=O)O)cc(S(N)(=O)=O)c1Oc1ccccc1 [Bumetanide],1.33 ± 0.021
4,CC(C)n1c(/C=C/C(O)CC(O)CC(=O)O)c(-c2ccc(F)cc2)c2ccccc21 (stereo not drawn) [Fluvastatin Sodium],0.964 ± 0.063
5,O=c1ccn([C@@H]2O[C@H](CO)[C@@H](O)[C@H]2O)c(=O)[nH]1 [Uridine],1.08 ± 0.059
6,OC(CC1c2ccccc2-c2cncn21)C1CCCCC1 (stereo not drawn),1.13 ± 0.076
7,COc1ccc(C[C@H](N)C(=O)N[C@H]2[C@@H](O)[C@H](n3cnc4c(N(C)C)ncnc43)O[C@@H]2CO)cc1 [Puromycin 2HCl],0.133 ± 0.042
8,NC(=O)OCC(COC(N)=O)c1ccccc1 [Felbamate],1 ± 0.23
9,CCC[S+]([O-])c1ccc2[nH]c(NC(=O)OC)nc2c1 (stereo not drawn) [Albendazole Oxide],1 ± 0.051
10,Cc1ccnc(NS(=O)(=O)c2ccc(N)cc2)n1 [Sulfamerazine],1.18 ± 0.024
11,COC(=O)N[C@H](C(=O)N[C@@H](Cc1ccccc1)[C@@H](O)CN(Cc1ccc(-c2ccccn2)cc1)NC(=O)[C@@H](NC(=O)OC)C(C)(C)C)C(C)(C)C [Atazanavir Sulfate],1.06 ± 0.041
12,CNC[C@H](O)[C@@H](O)[C@H](O)[C@H](O)CO [Meglumine],1.008 ± 0.0073
13,COC(=O)Nc1ccc(-c2nc(N3CCOCC3)c3cnn(C4CCN(C(=O)OC)CC4)c3n2)cc1,0.844 ± 0.13
14,Cc1c(Nc2ncccc2C(=O)O)cccc1C(F)(F)F [Flunixin Meglumin],0.994 ± 0.028
15,CC[C@H](c1ccc(O)cc1)[C@@H](CC)c1ccc(O)cc1 [Hexestrol],1.14 ± 0.017
16,OC[C@@H](O)CN1CCN(c2ccccc2)CC1 [Levodropropizine],1.15 ± 0.065
17,N#CC1(c2ccc(NC(=O)c3cccnc3NCc3ccncc3)cc2)CCCC1 [Apatinib],1.12 ± 0.054
18,CC(ONC(=O)c1cc(C(F)(F)F)cc(C(F)(F)F)c1)C(=O)Nc1ccc(Cl)cc1 (stereo not drawn),1.07 ± 0.024
19,CN1CCN(C(=O)c2cc3cc(Cl)ccc3[nH]2)CC1,1.14 ± 0.064
20,CC(=O)OCC(=O)[C@@]1(O)CC[C@H]2[C@@H]3CCC4=CC(=O)C=C[C@]4(C)[C@H]3[C@@H](O)C[C@@]21C [Prednisolone Acetate],0.947 ± 0.074
21,COc1ccc(CNc2nc(N3CCC[C@H]3CO)ncc2C(=O)NCc2ncccn2)cc1Cl [Avanafil],0.954 ± 0.29
22,COC(=O)N[C@H](C(=O)N1CC2(CC2)C[C@H]1c1nc(-c2ccc3c(c2)C(F)(F)c2cc(-c4ccc5[nH]c([C@@H]6[C@H]7CC[C@H](C7)N6C(=O)[C@@H](NC(=O)OC)C(C)C)nc5c4)ccc2-3)c[nH]1)C(C)C [Ledipasvir (GS5885)],1.13 ± 0.14
23,FC(F)(F)Oc1ccc2nc(-c3ccc(OCCOCCOc4ccc(-c5nc6ccc(OC(F)(F)F)cc6[nH]5)nc4)cn3)[nH]c2c1,0.7346 ± 0.0035
24,Cn1cnc2c(F)c(Nc3ccc(Br)cc3Cl)c(C(=O)NOCCO)cc21 [Selumetinib (AZD6244)],0.638 ± 0.18
25,Nc1nc(N)c2nc(-c3cccc(O)c3)c(-c3cccc(O)c3)nc2n1,1.02 ± 0.074

row,Compound,relative cell viability
1,C[C@H](CS)C(=O)N1CCC[C@H]1C(=O)O [Captopril],1.08 ± 0.034
2,CN(Cc1cc(Br)cc(Br)c1N)C1CCCCC1 [Bromhexine HCl],1.09 ± 0.086
3,NCCc1ccc(O)c(O)c1 [Dopamine HCl],1.06 ± 0.12
4,CC(C)=CCCC(C)(OC1OC(COC2OCC(O)C(O)C2O)C(O)C(O)C1O)C1CCC2(C)C1C(O)CC1C3(C)CCC(OC4OC(CO)C(O)C(O)C4O)C(C)(C)C3CCC12C (stereo not drawn) [Gynostemma Extract],1.1 ± 0.068
5,C[N+](C)(C)CC(O)CC(=O)[O-] (racemic) [DL-Carnitine HCl],0.99 ± 0.15
6,CCS(=O)(=O)N1CCN(c2ccc(Nc3ncc(C(N)=O)c(NC4CC4)n3)cc2)CC1,1.02 ± 0.02
7,Cn1cnc(=N)c2[nH]cnc21 [3-Methyladenine],1.22 ± 0.019
8,C[N+](C)(C)C[C@H](O)CC(=O)[O-] [L-carnitine],1.04 ± 0.016
9,O=C(c1ccccc1)c1ccc2nc(NC(=O)c3csc(C4CCN(c5ncnc6ccsc56)CC4)n3)[nH]c2c1,1.17 ± 0.026
10,Cn1c(N2CCCCS2(=O)=O)nc(C(=O)NCc2ccc(F)cc2)c(O)c1=O,1.157 ± 0.0084
11,COc1ccc(CCC(=O)Nc2nc3ccc(Cl)cc3s2)cc1OC,1.17 ± 0.035
12,C=C1C(=O)O[C@H]2[C@H]1CC/C(C)=C/CC[C@@]1(C)O[C@@H]21 [(-)-Parthenolide],0.964 ± 0.014
13,CCCCOc1ccc(C(=O)CCN2CCCCC2)cc1 [Dyclonine HCl],1.02 ± 0.021
14,COc1ccc(CCC(=O)c2c(O)cc(O[C@@H]3O[C@H](CO)[C@@H](O)[C@H](O)[C@H]3O[C@@H]3O[C@@H](C)[C@H](O)[C@@H](O)[C@H]3O)cc2O)cc1O [Neohesperidin dihydrochalcone (Nhdc)],1.12 ± 0.01
15,O=[N+]([O-])c1cn2c(n1)OC[C@@H](OCc1ccc(OC(F)(F)F)cc1)C2,1.228 ± 0.011
16,Cn1nnc2c(C(N)=O)ncn2c1=O [Temozolomide],1.07 ± 0.092
17,Cc1ccc(C(=O)N(CCCN)[C@@H](c2oc3cc(Cl)ccc3c(=O)c2Cc2ccccc2)C(C)C)cc1,0.766 ± 0.026
18,C=CC[N+]1([C@H]2C[C@H]3[C@@H]4CC[C@H]5C[C@H](O)[C@@H](N6CCOCC6)C[C@]5(C)[C@H]4CC[C@]3(C)[C@H]2OC(C)=O)CCCC1 [Rocuronium Bromide],1.184 ± 0.0015
19,Cc1ccc(C(=O)Cn2c3c(sc2=N)CCCC3)cc1 [Pifithrin-α (PFTα)],0.951 ± 0.12
20,CC(C)(C)NC(=O)[C@H]1CC[C@H]2[C@@H]3CC[C@H]4NC(=O)C=C[C@]4(C)[C@H]3CC[C@]12C [Finasteride],1.14 ± 0.041
21,C=C1CC[C@H](O)C/C1=C/C=C1\CCC[C@]2(C)[C@@H]([C@H](C)/C=C/[C@H](C)C(C)C)CC[C@@H]12 [Vitamin D2],0.982 ± 0.093
22,Nc1nc(N)c2nc(-c3ccccc3)c(N)nc2n1 [Triamterene],0.968 ± 0.026
23,CO[C@H]1C[C@@H]2CC[C@@H](C)[C@@](O)(O2)C(=O)C(=O)N2CCCC[C@H]2C(=O)O[C@H]([C@H](C)C[C@@H]2CC[C@@H](OC(=O)C(C)(CO)CO)[C@H](OC)C2)CC(=O)[C@H](C)/C=C(\C)[C@@H](O)[C@@H](OC)C(=O)[C@H](C)C[C@H](C)/C=C/C=C/C=C/1C,0.937 ± 0.045
24,CCC[C@@H]1C[C@@H](C(=O)N[C@@H]([C@H]2O[C@H](SC)[C@H](O)[C@@H](O)[C@H]2O)[C@@H](C)O)N(C)C1 [Lincomycin HCl],1.12 ± 0.073
25,N#Cc1c(Oc2ccc(F)c(NC(=O)Cc3cccc(C(F)(F)F)c3)c2)ccc2nc(NC(=O)C3CC3)sc12,0.753 ± 0.017

row,Compound,relative cell viability
1,O=c1cc[nH]c(=O)[nH]1 [Uracil],1.16 ± 0.018
2,COc1ccc(-c2cc(=O)c3c(OC)c(OC)c(OC)c(OC)c3o2)cc1OC [Nobiletin],1.13 ± 0.022
3,Cc1ccc(C(=O)Nc2cccc(C(F)(F)F)c2)cc1Nc1nc(-c2cccnc2)nc2c1cnn2C,1.13 ± 0.043
4,Cc1noc(-c2ccc(CSCCC(=O)O)cc2)c1NC(=O)OC(C)c1ccccc1Cl (stereo not drawn),1.08 ± 0.064
5,Cc1cccc(-c2nn3c(c2-c2ccnc4ccc(C(N)=O)cc24)CCC3)n1,0.829 ± 0.024
6,CC(C)c1nc(CN(C)C(=O)N[C@@H](CCN2CCOCC2)C(=O)N[C@H](CC[C@H](Cc2ccccc2)NC(=O)OCc2cncs2)Cc2ccccc2)cs1 [Cobicistat (GS-9350)],1.11 ± 0.05
7,Cc1cc(C)nc(NS(=O)(=O)c2ccc(NC(=S)NC(=O)COc3ccc(Br)cc3Cl)cc2)n1,1.07 ± 0.023
8,O=C(Nc1cccnc1)N1CCC(Cc2cccc(Oc3ccc(C(F)(F)F)cn3)c2)CC1,1.16 ± 0.062
9,Cc1ccc(CNc2ncnc3ccc(-c4ccc(CO)o4)cc23)o1,1.08 ± 0.015
10,CN1C(C(=O)Nc2ccccn2)=C(O)c2sc(Cl)cc2S1(=O)=O [Lornoxicam],0.859 ± 0.058
11,CC12CC3CC(C)(C1)CC(N)(C3)C2 [Memantine HCl],1.1 ± 0.014
12,O=C(O)c1ccc(C=C2SC(=S)N(c3cccc(C(F)(F)F)c3)C2=O)cc1,1.04 ± 0.026
13,COc1ccc(-c2cc(=O)c3c(OC)c(OC)c(OC)c(OC)c3o2)cc1 [Tangeretin],1.16 ± 0.12
14,COc1ccc(-c2ccc3cc(C(=O)O)ccc3c2)cc1C12CC3CC(CC(C3)C1)C2 [Adapalene],1.21 ± 0.045
15,COc1cc2c(NC3CCN(CC4CCCCC4)CC3)nc(N3CCCN(C(C)C)CC3)nc2cc1OCCCN1CCCCC1,1 ± 0.13
16,CCCCc1oc2ccccc2c1C(=O)c1cc(I)c(OCCN(CC)CC)c(I)c1 [Amiodarone HCl],0.9232 ± 0.0053
17,O=C(O)c1cccnc1 [Nicotinic Acid],1.13 ± 0.021
18,C=CCNC1=C2C[C@@H](C)C[C@H](OC)[C@H](O)[C@@H](C)/C=C(\C)[C@H](OC(N)=O)[C@@H](OC)/C=C\C=C(/C)C(=O)NC(=CC1=O)C2=O [17-AAG (Tanespimycin)],0.5802 ± 0.0011
19,Cc1cccc(N(C)C(=S)Oc2ccc3ccccc3c2)c1 [Tolnaftate],0.9946 ± 0.0045
20,O=c1[nH]c(=O)n([C@H]2C[C@H](O)[C@@H](CO)O2)cc1I [Idoxuridine],1.08 ± 0.029
21,CN1CCN(c2ccc3nc(-c4c(N)c5c(F)cccc5[nH]c4=O)[nH]c3c2)CC1 [Dovitinib (TKI258) Lactate],1.02 ± 0.027
22,CN1CCN(c2ccc3nc(-c4c(N)c5c(F)cccc5[nH]c4=O)[nH]c3c2)CC1 [Dovitinib (TKI-258) Dilactic Acid],0.976 ± 0.088
23,"CN1CCN(c2ccc3nc(-c4c(N)c5c(F)cccc5[nH]c4=O)[nH]c3c2)CC1 [Dovitinib (TKI-258, CHIR-258)]",0.967 ± 0.11
